# Source: the supplement of paper PMC3334620
# In all, about 33,000 sequences were measured (“E-score (-0.5 to 0.5)”: median about -0.013, highest 2% from about 0.3 on). This is one part of the list.
# Target: T1, Msn1 (UniProt P22148)
# T1 sequence: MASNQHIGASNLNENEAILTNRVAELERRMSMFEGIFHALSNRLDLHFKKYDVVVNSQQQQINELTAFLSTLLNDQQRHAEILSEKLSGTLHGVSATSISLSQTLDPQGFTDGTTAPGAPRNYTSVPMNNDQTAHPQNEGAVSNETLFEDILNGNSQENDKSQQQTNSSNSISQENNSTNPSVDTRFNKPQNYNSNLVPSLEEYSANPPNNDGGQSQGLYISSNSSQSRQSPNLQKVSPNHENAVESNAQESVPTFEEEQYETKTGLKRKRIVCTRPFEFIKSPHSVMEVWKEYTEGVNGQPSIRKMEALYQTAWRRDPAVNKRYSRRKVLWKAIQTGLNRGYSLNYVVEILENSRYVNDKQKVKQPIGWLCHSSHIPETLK
# Assay: PBM E-score (8-mer binding enrichment) (E-score (-0.5 to 0.5)); higher = stronger / more preferred TF binding; most listed sequences are background and not binding sites
# Details: protein concentration: 200 nM; construct: GST-full length
# Outline: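 For each ungapped eight-base word taken together with its reverse complement, the Universal PBM Analysis Suite assigned an E-score. Binding data came from GST-tagged yeast transcription factors, applied at about 100-200 nM, on universal all-10-mer Agilent arrays made double-stranded by primer extension. Fluorescent anti-GST marked bound protein, and scans were normalised with masliner.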
row,Sequence,PBM E-score
1,ACCACGGG,-0.129
2,AATTTTAC,0.177
3,CCAAAAAG,0.126
4,GTGTTATA,0.118
5,GGAGGCTA,-0.265
6,CCCAAGGC,-0.0901
7,GTTGGGTA,-0.0801
8,ATAATCGC,0.0651
9,CCCGCCGA,-0.168
10,ACATTAAG,0.32
11,ACCGGTTA,0.085
12,CATAACCC,-0.111
13,AGAAACAA,0.222
14,CTTGCAAA,0.0128
15,GAATTGTA,0.151
16,CAGATGCA,-0.34
17,AACCACGA,-0.0849
18,GCTTCGGA,0.142
19,CCGTTCGA,-0.0871
20,CGCGGCTC,-0.00316
21,CTGCAGAA,0.136
22,GATTATGA,0.126

row,Sequence,PBM E-score
1,CAAGTTCA,0.158
2,CCTTAAAG,-0.018
3,CCGTGGCG,-0.211
4,ATACAGAA,0.203
5,CATGGCGG,-0.248
6,CATTTAGG,0.138
7,AGCTGGTG,-0.111
8,TGGTGGAA,0.00587
9,AACACTCA,-0.00135
10,AGGAGCCA,-0.23
11,ACAGGCCG,0.0698
12,GAGTACTC,0.00194
13,GCAGTGTA,-0.0481
14,AGTCTCCG,0.159
15,GAAAAATA,0.187
16,AAGGACAT,0.49
17,GCTGCCAC,-0.149
18,ACTGACGA,0.0858
19,AGATACTC,-0.0218
20,ACATCGCG,0.0812
21,TAAGTTAA,-0.0568
22,CCTGCCGC,-0.181

row,Sequence,PBM E-score
1,TCGGTAAA,0.134
2,GATTGTGC,-0.0365
3,ACCAGCTC,-0.103
4,CGTCAACG,-0.179
5,CCTGGATA,-0.127
6,ATGCCCGG,-0.043
7,AAAATCCT,0.115
8,ATCCTTTG,0.075
9,CCGCCGCG,-0.00962
10,ACCTTTTA,-0.141
11,GTATGCAC,0.07
12,CACTTTTC,0.136
13,GATCGGCC,-0.0564
14,CGTGTACA,0.277
15,CACTTTAA,0.155
16,AGATTCGC,-0.0289
17,ATACCACG,0.00303
18,ATGGCGTG,0.0499
19,CTAATTTA,0.259
20,CCTAGACG,-0.133
21,CACTGCAG,0.0287
22,GAAAGCGC,0.00496

row,Sequence,PBM E-score
1,GAACCTTC,-0.0971
2,ACCAAAGT,0.115
3,TTCCTCAA,-0.0224
4,ACAGCTGG,-0.0677
5,AACCAGTG,-0.183
6,CGAAGCAG,-0.15
7,GTAAAAGA,0.16
8,CCCTGTAC,-0.232
9,AACCCAAT,-0.0576
10,CAACCCAC,0.054
11,GTTAAGAA,-0.0961
12,AGCTAGTG,-0.03
13,ATTCACGG,0.0109
14,CCTCGTGA,0.121
15,AATGGACA,0.438
16,TGTTATAA,0.042
17,GCGGAGAA,-0.00976
18,CCGCTCGA,-0.143
19,AACCGAAC,-0.0294
20,CGCAAGTA,0.175
